# Measured values as given in the supplement of paper PMC8728848.
# This is one part of the list.
# B1: Sebin2 (Coprinopsis cinerea), A8PE78 (protein)
# chain: MTTPFYAYCHNVQDDNTWRLGLVFANRSTADEWWRAISEATSSIPITKSITRVTPQYYTHDIRVWNMYNFFVDGNIKSISDKFRGRLFITLEYDRSGRGVSVFPPLHIVDHVSGNWYYIRSKTAPHLFWFYDETRNAIYASKEKRTRFKVSIRNPSPQTPKDAIMINSDDVVIHIKESLYVGVDSYLGHIIPTRAYRTFKFGELEGGAIAGIEVAENAEERCSSTFDGASLYFVGPDSSSPGEPWELV
# Tests used:
# Experiment in all cases: glycan array binding signal (z-score within array); higher = stronger binding
# Details in all cases: glycan notation: IUPAC condensed, linker removed
# [1] = biological target: GlcNAc(b1-2)[GlcNAc(b1-4)]Man(a1-3)[GlcNAc(b1-4)][GlcNAc(b1-2)Man(a1-6)]Man(b1-4)GlcNAc(b1-4)GlcNAc
# In short: (§1)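 Arrays were curated from the Consortium for Functional Glycomics database, 3228 in total, and kept only where the protein sequence was available. Binding is expressed as a within-array Z-score. This score was averaged across arrays of the same protein sequence at different concentrations or buffers and across linkers, and negative values can be read as non-binding.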
# [2] = biological target: GlcNAc(b1-2)[GlcNAc(b1-4)]Man(a1-3)[GlcNAc(b1-4)][GlcNAc(b1-2)[GlcNAc(b1-6)]Man(a1-6)]Man(b1-4)GlcNAc(b1-4)GlcNAc
# In short: as §1
# [3] = biological target: GlcNAc(b1-2)[GlcNAc(b1-4)]Man(a1-3)[GlcNAc(b1-4)][GlcNAc(b1-2)[GlcNAc(b1-6)]Man(a1-6)]Man(b1-4)GlcNAc(b1-4)[Fuc(a1-6)]GlcNAc
# In short: as §1
# [4] = biological target: GlcNAc(b1-2)[GlcNAc(b1-6)]Man(a1-6)[GlcNAc(b1-2)Man(a1-3)]Man(b1-4)GlcNAc(b1-4)GlcNAc
# In short: as §1
# [5] = biological target: GlcNAc(b1-2)[GlcNAc(b1-6)]Man(a1-6)[GlcNAc(b1-2)Man(a1-3)]Man(b1-4)GlcNAc(b1-4)[Fuc(a1-6)]GlcNAc
# In short: as §1
# [6] = biological target: GlcNAc(b1-2)[GlcNAc(b1-6)]Man(a1-6)[GlcNAc(b1-4)][GlcNAc(b1-2)Man(a1-3)]Man(b1-4)GlcNAc(b1-4)GlcNAc
# In short: as §1
# GlcNAc(b1-3)Fuc = biological target: GlcNAc(b1-3)Fuc
# In short: as §1
# GlcNAc(b1-3)Gal = biological target: GlcNAc(b1-3)Gal
# In short: as §1
# [7] = biological target: GlcNAc(b1-3)Gal(b1-3)GalNAc
# In short: as §1
# GlcNAc(b1-3)Gal(b1-4)Glc = biological target: GlcNAc(b1-3)Gal(b1-4)Glc
# In short: as §1
# [8] = biological target: GlcNAc(b1-3)Gal(b1-4)GlcNAc
# In short: as §1
# [9] = biological target: GlcNAc(b1-3)Gal(b1-4)GlcNAc(b1-2)Man(a1-3)[GlcNAc(b1-3)Gal(b1-4)GlcNAc(b1-2)Man(a1-6)]Man(b1-4)GlcNAc(b1-4)GlcNAc
# In short: as §1
# [10] = biological target: GlcNAc(b1-3)Gal(b1-4)GlcNAc(b1-2)Man(a1-3)[GlcNAc(b1-3)Gal(b1-4)GlcNAc(b1-2)Man(a1-6)]Man(b1-4)GlcNAc(b1-4)[Fuc(a1-6)]GlcNAc
# In short: as §1
# [11] = biological target: GlcNAc(b1-3)Gal(b1-4)GlcNAc(b1-2)[GlcNAc(b1-3)Gal(b1-4)GlcNAc(b1-6)]Man(a1-6)[GlcNAc(b1-3)Gal(b1-4)GlcNAc(b1-2)Man(a1-3)]Man(b1-4)GlcNAc(b1-4)GlcNAc
# In short: as §1
# [12] = biological target: GlcNAc(b1-3)Gal(b1-4)GlcNAc(b1-3)Gal(b1-4)GlcNAc
# In short: as §1
# [13] = biological target: GlcNAc(b1-3)Gal(b1-4)GlcNAc(b1-3)Gal(b1-4)GlcNAc(b1-2)Man(a1-3)[GlcNAc(b1-3)Gal(b1-4)GlcNAc(b1-3)Gal(b1-4)GlcNAc(b1-2)Man(a1-6)]Man(b1-4)GlcNAc(b1-4)GlcNAc
# In short: as §1
# [14] = biological target: GlcNAc(b1-3)Gal(b1-4)GlcNAc(b1-3)Gal(b1-4)GlcNAc(b1-2)Man(a1-3)[GlcNAc(b1-3)Gal(b1-4)GlcNAc(b1-3)Gal(b1-4)GlcNAc(b1-2)Man(a1-6)]Man(b1-4)GlcNAc(b1-4)[Fuc(a1-6)]GlcNAc
# In short: as §1
# [15] = biological target: GlcNAc(b1-3)Gal(b1-4)GlcNAc(b1-3)Gal(b1-4)GlcNAc(b1-2)[GlcNAc(b1-3)Gal(b1-4)GlcNAc(b1-3)Gal(b1-4)GlcNAc(b1-6)]Man(a1-6)[GlcNAc(b1-3)Gal(b1-4)GlcNAc(b1-3)Gal(b1-4)GlcNAc(b1-2)Man(a1-3)]Man(b1-4)GlcNAc(b1-4)[Fuc(a1-6)]GlcNAc
# In short: as §1
# [16] = biological target: GlcNAc(b1-3)Gal(b1-4)GlcNAc(b1-3)Gal(b1-4)GlcNAc(b1-3)Gal(b1-4)GlcNAc(b1-2)Man(a1-3)[GlcNAc(b1-3)Gal(b1-4)GlcNAc(b1-3)Gal(b1-4)GlcNAc(b1-3)Gal(b1-4)GlcNAc(b1-2)Man(a1-6)]Man(b1-4)GlcNAc(b1-4)GlcNAc
# In short: as §1
# [17] = biological target: GlcNAc(b1-3)Gal(b1-4)GlcNAc(b1-3)Gal(b1-4)GlcNAc(b1-3)Gal(b1-4)GlcNAc(b1-2)Man(a1-3)[GlcNAc(b1-3)Gal(b1-4)GlcNAc(b1-3)Gal(b1-4)GlcNAc(b1-3)Gal(b1-4)GlcNAc(b1-2)Man(a1-6)]Man(b1-4)GlcNAc(b1-4)[Fuc(a1-6)]GlcNAc
# In short: as §1
# [18] = biological target: GlcNAc(b1-3)Gal(b1-4)GlcNAc(b1-3)Gal(b1-4)GlcNAc(b1-3)Gal(b1-4)GlcNAc(b1-2)[GlcNAc(b1-3)Gal(b1-4)GlcNAc(b1-3)Gal(b1-4)GlcNAc(b1-3)Gal(b1-4)GlcNAc(b1-6)]Man(a1-6)[GlcNAc(b1-3)Gal(b1-4)GlcNAc(b1-3)Gal(b1-4)GlcNAc(b1-3)Gal(b1-4)GlcNAc(b1-2)Man(a1-3)]Man(b1-4)GlcNAc(b1-4)[Fuc(a1-6)]GlcNAc
# In short: as §1
# [19] = biological target: GlcNAc(b1-3)Gal(b1-4)GlcNAc(b1-3)Gal(b1-4)GlcNAc(b1-3)Gal(b1-4)GlcNAc(b1-3)Gal(b1-4)GlcNAc(b1-2)Man(a1-3)[GlcNAc(b1-3)Gal(b1-4)GlcNAc(b1-3)Gal(b1-4)GlcNAc(b1-3)Gal(b1-4)GlcNAc(b1-3)Gal(b1-4)GlcNAc(b1-2)Man(a1-6)]Man(b1-4)GlcNAc(b1-4)GlcNAc
# In short: as §1
# [20] = biological target: GlcNAc(b1-3)Gal(b1-4)GlcNAc(b1-3)Gal(b1-4)GlcNAc(b1-3)Gal(b1-4)GlcNAc(b1-3)Gal(b1-4)GlcNAc(b1-2)Man(a1-3)[GlcNAc(b1-3)Gal(b1-4)GlcNAc(b1-3)Gal(b1-4)GlcNAc(b1-3)Gal(b1-4)GlcNAc(b1-3)Gal(b1-4)GlcNAc(b1-2)Man(a1-6)]Man(b1-4)GlcNAc(b1-4)[Fuc(a1-6)]GlcNAc
# In short: as §1
# [21] = biological target: GlcNAc(b1-3)Gal(b1-4)GlcNAc(b1-3)Gal(b1-4)GlcNAc(b1-3)Gal(b1-4)GlcNAc(b1-3)Gal(b1-4)GlcNAc(b1-2)[GlcNAc(b1-3)Gal(b1-4)GlcNAc(b1-3)Gal(b1-4)GlcNAc(b1-3)Gal(b1-4)GlcNAc(b1-3)Gal(b1-4)GlcNAc(b1-6)]Man(a1-6)[GlcNAc(b1-3)Gal(b1-4)GlcNAc(b1-3)Gal(b1-4)GlcNAc(b1-3)Gal(b1-4)GlcNAc(b1-3)Gal(b1-4)GlcNAc(b1-2)Man(a1-3)]Man(b1-4)GlcNAc(b1-4)[Fuc(a1-6)]GlcNAc
# In short: as §1
# [22] = biological target: GlcNAc(b1-3)Gal(b1-4)GlcNAc(b1-3)Gal(b1-4)GlcNAc(b1-3)GalNAc
# In short: as §1
# [23] = biological target: GlcNAc(b1-3)Gal(b1-4)GlcNAc(b1-3)GalNAc
# In short: as §1
# [24] = biological target: GlcNAc(b1-3)Gal(b1-4)GlcNAc(b1-3)[GlcNAc(b1-3)Gal(b1-4)GlcNAc(b1-3)]GalNAc
# In short: as §1
# [25] = biological target: GlcNAc(b1-3)Gal(b1-4)GlcNAc(b1-6)[Gal(b1-3)]GalNAc
# In short: as §1
# [26] = biological target: GlcNAc(b1-3)Gal(b1-4)GlcNAc(b1-6)[GlcNAc(b1-3)Gal(b1-3)]GalNAc
# In short: as §1
# [27] = biological target: GlcNAc(b1-3)Gal(b1-4)GlcNAc(b1-6)[GlcNAc(b1-3)]Gal(b1-4)GlcNAc
# In short: as §1
# GlcNAc(b1-3)GalNAc = biological target: GlcNAc(b1-3)GalNAc
# In short: as §1
# GlcNAc(b1-3)Man = biological target: GlcNAc(b1-3)Man
# In short: as §1
# [28] = biological target: GlcNAc(b1-3)[GlcNAc(b1-4)][GlcNAc(b1-6)]GlcNAc
# In short: as §1
# [29] = biological target: GlcNAc(b1-3)[GlcNAc(b1-6)]Gal(b1-4)GlcNAc
# In short: as §1
# [30] = biological target: GlcNAc(b1-3)[GlcNAc(b1-6)]GalNAc
# In short: as §1
# [31] = biological target: GlcNAc(b1-4)Gal(b1-4)GlcNAc
# In short: as §1
# GlcNAc(b1-4)GlcNAc = biological target: GlcNAc(b1-4)GlcNAc
# In short: as §1
# [32] = biological target: GlcNAc(b1-4)GlcNAc(b1-4)GlcNAc
# In short: as §1
binder,measurement,setting,value
B1,glycan array binding signal (z-score),[1],2.76
same,glycan array binding signal (z-score),[2],-0.16
same,glycan array binding signal (z-score),[3],-0.211
same,glycan array binding signal (z-score),[4],0.031
same,glycan array binding signal (z-score),[5],-0.115
same,glycan array binding signal (z-score),[6],-0.308
same,glycan array binding signal (z-score),GlcNAc(b1-3)Fuc,-0.007
same,glycan array binding signal (z-score),GlcNAc(b1-3)Gal,-0.7
same,glycan array binding signal (z-score),[7],-0.073
same,glycan array binding signal (z-score),GlcNAc(b1-3)Gal(b1-4)Glc,-0.04
same,glycan array binding signal (z-score),[8],-0.287
same,glycan array binding signal (z-score),[9],-0.256
same,glycan array binding signal (z-score),[10],0.001
same,glycan array binding signal (z-score),[11],-0.571
same,glycan array binding signal (z-score),[12],-0.385
same,glycan array binding signal (z-score),[13],-0.255
same,glycan array binding signal (z-score),[14],-0.041
same,glycan array binding signal (z-score),[15],0.486
same,glycan array binding signal (z-score),[16],0.009
same,glycan array binding signal (z-score),[17],-0.017
same,glycan array binding signal (z-score),[18],0.275
same,glycan array binding signal (z-score),[19],-0.343
same,glycan array binding signal (z-score),[20],-0.166
same,glycan array binding signal (z-score),[21],0.448
same,glycan array binding signal (z-score),[22],-0.368
same,glycan array binding signal (z-score),[23],-0.027
same,glycan array binding signal (z-score),[24],-0.383
same,glycan array binding signal (z-score),[25],-0.253
same,glycan array binding signal (z-score),[26],-0.174
same,glycan array binding signal (z-score),[27],-0.21
same,glycan array binding signal (z-score),GlcNAc(b1-3)GalNAc,-0.413
same,glycan array binding signal (z-score),GlcNAc(b1-3)Man,-0.177
same,glycan array binding signal (z-score),[28],-0.339
same,glycan array binding signal (z-score),[29],0.177
same,glycan array binding signal (z-score),[30],0.087
same,glycan array binding signal (z-score),[31],0.023
same,glycan array binding signal (z-score),GlcNAc(b1-4)GlcNAc,-0.114
same,glycan array binding signal (z-score),[32],-0.621
